According to PubChem BioAssay (Tox21):
Several values for one entry are separate records, joined by “and”; a condition that tells them apart may be missing. Equal entries are not always repeated. The inconclusive results got no clear call from the source; some entries with a clear call stand among them for comparison. A potency beside an inconclusive call is a rough fit, not a confirmed value. Activity calls are given as the source filed them. Calls come from the whole dose curve; as a rule, active = well fitted activation curve with a large enough effect in the repeat runs; inconclusive = weak or mixed curves; inactive = flat fitted curve, though single readings scatter.

assay: A CellTox Green Cytotoxicity Assay to monitor cytotoxicity in HepG2 cells - 40 hour (AID 1224879); settings: CellTox Green fluorescence; series mostly up to 76.8 µM; cytotoxicity increase: at the top concentration; note: nearly all actives have a fitted effect of over 40% in size
Outline: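 Real-time cytotoxicity: fluorescence of a cell-impermeant cyanine dye binding DNA of dead HepG2 cells, measured repeatedly (0–40 h) during compound exposure at 37 C. Cells seeded 600/well with reagent, dosed after 5 h.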
% is set by controls: 0 for no effect and ±100 for the full control effect; potency is the fitted concentration of half-maximal effect; tags give direction and shape of the fitted curve.

Q: With `Nc1ccc(S(=O)(=O)NCc2ccccc2)cc1` as the compound, how does the “cytotoxicity increase” value read?
A: inactive: -10.8% [at 35.3 µM]

Q: Which “cytotoxicity increase” value does the source give for `O=C(OC(=O)c1ccccc1)c1ccccc1` here?
A: inactive: -1.01%

Q: With `CC1CCCC(=O)C1=O` (centres undefined) as the compound, how does the Potency read?
A: inconclusive: 24.5 µM [activator, full curve, poor fit]

Q: For `Cc1c(C(N)=O)cc([N+](=O)[O-])cc1[N+](=O)[O-]`, which Potency is on record?
A: inconclusive: 26.8 µM [activator, single point]

Q: For `CCCCCCCC(=O)OC`, which Potency is on record?
A: inactive and inconclusive: 54.9 µM [activator, single point]

Q: For `COc1ncnc(NS(=O)(=O)c2ccc(N)cc2)c1OC`, which Potency is on record?
A: inconclusive: 26.8 µM [activator, single point]

Q: For `N#CCCN(CCO)CCO`, which “cytotoxicity increase” value is on record?
A: inactive: -1.85%

Q: For `CCCOC(=O)NCCCN(C)C`, which Potency is on record?
A: inactive

Q: For `COc1ccc(C(=O)c2ccccc2)c(O)c1`, which Potency is on record?
A: inconclusive: 48.2 µM [activator, partial curve, poor fit] and inactive

Q: Which “cytotoxicity increase” value does the source give for `CC(N)=O` here?
A: inactive: 14.5% [at 200 µM]

Q: Which Potency does the source give for `CC(=O)C(C)=O` here?
A: inconclusive: 22 µM [activator, single point]

Q: With `Cc1ccc(C(C)C)c(O)c1` as the compound, how does the Potency read?
A: inconclusive: 54.9 µM [activator, single point] and inactive

Q: With `CC1(C)CC(OC(=O)CCCCCCCCC(=O)OC2CC(C)(C)NC(C)(C)C2)CC(C)(C)N1` as the compound, how does the cytotoxicity increase read?
A: inactive: -12% [at 15.8 µM]

Q: Which “cytotoxicity increase” value does the source give for `Cc1cccc(Br)c1` here?
A: inactive: 1.02%
